According to PubChem BioAssay AID1745853 (National Center for Advancing Translational Sciences (NCATS), 2022):
This is one part of the list. These are further read-outs of the screen, such as a control signal, another cell line or another target. No call is given for them.

Experiments:
Assay in all cases: Primary Screen for Target Class Profiling of Small Molecule Inhibitors of Methyltransferases
[1] = target: Glycine N-methyltransferase (Homo sapiens) (UniProt Q14749); details: purified enzyme, MTase-Glo SAH luminescence; measured here: GNMT inhibition; at 40 µM; stronger effect = lower value
How it was run: (§1)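 Each enzyme was reacted with SAM and its substrate, with compounds tested once at 40 uM; SAH formed was read by MTase-Glo luminescence.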

[2] = target: Guanidinoacetate N-methyltransferase (Homo sapiens) (UniProt Q14353); details: purified enzyme, MTase-Glo SAH luminescence; measured here: GAMT inhibition; at 40 µM; stronger effect = lower value
How it was run: as §1

[3] = target: Histamine N-methyltransferase (Homo sapiens) (UniProt P50135); details: purified enzyme, MTase-Glo SAH luminescence; measured here: HNMT inhibition; at 40 µM; stronger effect = lower value
How it was run: as §1

[4] = target: Nicotinamide N-methyltransferase (Homo sapiens) (UniProt P40261); details: purified enzyme, MTase-Glo SAH luminescence; measured here: NNMT inhibition; at 40 µM; stronger effect = lower value
How it was run: as §1

[5] = target: Phenylethanolamine N-methyltransferase (Homo sapiens) (UniProt P11086); details: purified enzyme, MTase-Glo SAH luminescence; measured here: PNMT inhibition; at 40 µM; stronger effect = lower value
How it was run: as §1
On the % scale 0 is the no-effect control and ±100 the full control effect.

Row | Structure (SMILES) | activity change, negative = inhibition [1] [%] | activity change, negative = inhibition [2] [%] | activity change, negative = inhibition [3] [%] | activity change, negative = inhibition [4] [%] | activity change, negative = inhibition [5] [%]
1 | COc1ccc(OC)c(-c2nnc3n(Cc4ccccc4)c(=O)c4ccccc4n23)c1 | 0.64 | 16.1 | 3.31 | -0.828 | 0.555
2 | Cc1ccc(CN2C(=O)c3cc4sccc4n3CC2(C)C(=O)NC2CCCC2)cc1 (stereo not given) | -3.24 | 1.11 | -5.14 | -9.88 | -7.32
3 | COc1c2cc(c(O)c1OC)CCCCC(O)CCc1ccc(O)c-2c1 (stereo not given) | 0 | -8.02 | -9.67 | -21.6 | -7.61
4 | N#CC(C#N)=C(N)/C(C#N)=C/c1ccc(O)cc1 | -9.57 | 9.71 | 6.06 | -3.79 | -1.38
5 | COC(=O)CC[C@@H](C)C1CCC2C3CCC4C[C@H](OC(C)=O)CCC4(C)C3C[C@H](O)C21C (stereo not given in full) | -0.045 | -14.9 | 12.6 | -12.4 | -2.15
6 | C[C@@H](NC(=O)C1=C[C@@H](NC(=O)Nc2ccccc2Br)[C@@H](O)[C@H](O)C1)C(N)=O | -3.7 | -3.19 | -1.68 | -9.68 | -7.93
7 | CC1=CC2=C(C)C(=O)[C@](C)(O)[C@H](O)C2=CO1 | 2.19 | -0.584 | 0.938 | -9.98 | 1.38
8 | NC(N)=NCCC[C@H](NC(=O)c1sccc1NS(=O)(=O)c1cccc2nsnc12)C(=O)O | 0.344 | 3.6 | 8.77 | -13.2 | 3.66
9 | CCCN1C(=O)c2cc3occc3n2CC1(C)C(=O)NC1CCCCC1 (stereo not given) | -0.41 | 2.8 | 1.81 | 7.82 | 0.299
10 | COc1ccc(NC(=O)Cn2nc3n(CC(C)C)c(=O)c4ccccc4n3c2=O)cc1 | -1.14 | 3.85 | 2.52 | -8.94 | -0.597
11 | O=C(c1ccccc1F)N1CCC(N2CCCOC2=O)CC1 | -1.56 | -6.24 | 2.88 | -6.21 | 0.082
12 | CCOc1ccc(NC(=O)N2CCn3c(C)ccc3C2C(C)C)cc1 (stereo not given) | 8.96 | 0 | -4.13 | -3.19 | 1.52
13 | CC(=O)CC1CCC(C(C)C(=O)OCC(O)CO)O1 (stereo not given) | 0.694 | 2.36 | 10 | -10.1 | -7.66
14 | COc1ccc(CN2C(=O)c3ccc(-c4ccco4)n3CC2(C)C(=O)NC2CCCCC2)cc1 (stereo not given) | -12.9 | -7.69 | 1.53 | -14 | -9.38
15 | Cc1ccc(N2C(=O)c3nc4ccccc4n3CC2(C)C(=O)NC2CCCCC2C)cc1 (stereo not given) | 4.1 | 0 | 8.04 | 10 | 1.81
16 | C=CCn1c(=O)c2ccc(C(=O)NC(C)C)cc2n2c(=O)n(CC(=O)Nc3cccc(F)c3)nc12 | 6.41 | 0 | 8.75 | 1.37 | 2.64
17 | O=C(c1ccc2ncccc2c1)N1CCC(c2nc(CCOCC3CCOCC3)no2)C1 (stereo not given) | 2.31 | 0.861 | 2.25 | -3.98 | 0.221
18 | O=C1c2ccccc2OCC2(CCN([S+](=O)([O-])c3ccccc3)C2)N1[S+](=O)([O-])c1ccccc1 (stereo not given) | -7.87 | -10.4 | -6.5 | -23.5 | -13.3
19 | O=C(C[C@@H]1C(C(=O)O)=CO[C@@H](O[C@@H]2O[C@H](CO)[C@@H](O)[C@H](O)[C@H]2O)/C1=C\CO)OCCc1ccc(O)c(O)c1 | 6.25 | 5.49 | 13 | -8.49 | 7.4
20 | CCCn1c(=O)c2ccc(Cl)cc2n2c(SCC(=O)Nc3ccccc3Cl)nnc12 | -1.28 | 2.37 | -1.22 | 2.6 | -1.66
21 | CC(=O)Nc1c2n(c3ccc(F)cc13)CC(C)(C(=O)NC1CCCCC1)N(C1CCCCC1)C2=O (stereo not given) | -3.26 | -0.758 | -1.87 | -7.25 | -1.83
22 | CCN1C(=O)c2cc(C(=O)NCc3ccccc3)nn2CC1(C)C(=O)NC1CCCC1 (stereo not given) | -1.83 | -0.908 | -0.977 | -2.58 | -4.64
23 | Cc1ccccc1CNC(=O)C1(C)Cc2ccccc2C(=O)N1Cc1cccc(Cl)c1 (stereo not given) | -0.453 | 6.3 | -6.21 | -10.4 | -0.385
24 | CCc1cccc(NC(=O)c2ncn3c2C(=O)N(C2CC2)C(C)(C(=O)NCc2ccc(F)cc2)C3)c1 (stereo not given) | -1.67 | 0 | 2.09 | 1.6 | 2.13
25 | O=C(O)CC1(CC(=O)N[C@H]2C[C@@](O)(C(=O)N[C@H]3CCCNC3=O)C[C@@H](O)[C@@H]2O)CCCC1 | -0.835 | 1.4 | 1.86 | 0.03 | 1.36
26 | NC(=O)C1CCN(C(=O)CCc2nnc3n(Cc4ccc(F)cc4)c(=O)c4ccccc4n23)CC1 | -4.12 | 0.844 | -6.31 | 8.14 | -8.3
27 | Cc1cc(Cn2cnc3c2CC(C(=O)O)N(C(=O)C(c2ccccc2)c2ccccc2)C3)ccc1N(C)C (stereo not given) | -0.13 | -7.51 | -2.38 | -19.3 | -6.08
28 | Cn1c(=O)n(C)c2cc(S(=O)(=O)NCCN3CCOCC3)ccc21 | 0.92 | 5.71 | -4.78 | -4.32 | -5.66
29 | CCOC(=O)c1cc2n(n1)CC(C)(C(=O)NCc1ccccc1OC)N(c1ccc(C)c(C)c1)C2=O (stereo not given) | 4.87 | 1.23 | 12 | 1.32 | 6.09
